# Assay results as given in the supplement of paper PMC8728848.
# This is one part of the list.
# How the values were obtained:
# Experiment in all cases: glycan array binding signal (z-score within array); higher = stronger binding
# Details in all cases: glycan notation: IUPAC condensed, linker removed
# Gal(b1-3)GalNAc(b1-3)Gal = target: Gal(b1-3)GalNAc(b1-3)Gal
# Procedure, shortened: (§1)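 Glycan array binding is given as a within-array Z-score, which can be read as non-binding when negative. The arrays, 3228 of them, came from the Consortium for Functional Glycomics database and were retained only where the protein sequence was available. Z-scores were averaged across arrays of the same protein sequence at different concentrations or buffers and across linkers.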
# [1] = target: Gal(b1-3)GalNAc(b1-3)Gal(a1-4)Gal(b1-4)Glc
# Procedure, shortened: as §1
# [2] = target: Gal(b1-3)GalNAc(b1-4)Gal(b1-4)Glc
# Procedure, shortened: as §1
# [3] = target: Gal(b1-3)GalNAc(b1-4)[Neu5Ac(a2-3)]Gal(b1-4)Glc
# Procedure, shortened: as §1
# Gal(b1-3)GlcNAc = target: Gal(b1-3)GlcNAc
# Procedure, shortened: as §1
# [4] = target: Gal(b1-3)GlcNAc(a1-3)Gal(b1-4)GlcNAc
# Procedure, shortened: as §1
# [5] = target: Gal(b1-3)GlcNAc(a1-6)Gal(b1-4)GlcNAc
# Procedure, shortened: as §1
# Gal(b1-3)GlcNAc(b1-2)Man = target: Gal(b1-3)GlcNAc(b1-2)Man
# Procedure, shortened: as §1
# [6] = target: Gal(b1-3)GlcNAc(b1-2)Man(a1-3)[Gal(b1-3)GlcNAc(b1-2)Man(a1-6)]Man(b1-4)GlcNAc(b1-4)GlcNAc
# Procedure, shortened: as §1
# [7] = target: Gal(b1-3)GlcNAc(b1-2)Man(a1-3)[Gal(b1-3)GlcNAc(b1-2)Man(a1-6)]Man(b1-4)GlcNAc(b1-4)[Fuc(a1-6)]GlcNAc
# Procedure, shortened: as §1
# [8] = target: Gal(b1-3)GlcNAc(b1-2)Man(a1-3)[GlcNAc(b1-4)][Gal(b1-3)GlcNAc(b1-2)Man(a1-6)]Man(b1-4)GlcNAc(b1-4)GlcNAc
# Procedure, shortened: as §1
# [9] = target: Gal(b1-3)GlcNAc(b1-2)[Gal(b1-3)GlcNAc(b1-6)]Man(a1-6)[Gal(b1-3)GlcNAc(b1-2)Man(a1-3)]Man(b1-4)GlcNAc(b1-4)GlcNAc
# Procedure, shortened: as §1
# [10] = target: Gal(b1-3)GlcNAc(b1-3)Gal(b1-3)GlcNAc
# Procedure, shortened: as §1
# [11] = target: Gal(b1-3)GlcNAc(b1-3)Gal(b1-4)Glc
# Procedure, shortened: as §1
# [12] = target: Gal(b1-3)GlcNAc(b1-3)Gal(b1-4)GlcNAc
# Procedure, shortened: as §1
# [13] = target: Gal(b1-3)GlcNAc(b1-3)Gal(b1-4)GlcNAc(b1-2)Man(a1-3)[Gal(b1-3)GlcNAc(b1-3)Gal(b1-4)GlcNAc(b1-2)Man(a1-6)]Man(b1-4)GlcNAc(b1-4)GlcNAc
# Procedure, shortened: as §1
# [14] = target: Gal(b1-3)GlcNAc(b1-3)Gal(b1-4)GlcNAc(b1-2)[Gal(b1-3)GlcNAc(b1-3)Gal(b1-4)GlcNAc(b1-6)]Man(a1-6)[Gal(b1-3)GlcNAc(b1-3)Gal(b1-4)GlcNAc(b1-2)Man(a1-3)]Man(b1-4)GlcNAc(b1-4)[Fuc(a1-6)]GlcNAc
# Procedure, shortened: as §1
# [15] = target: Gal(b1-3)GlcNAc(b1-3)Gal(b1-4)GlcNAc(b1-3)Gal(b1-4)GlcNAc(b1-2)[Gal(b1-3)GlcNAc(b1-3)Gal(b1-4)GlcNAc(b1-3)Gal(b1-4)GlcNAc(b1-6)]Man(a1-6)[Gal(b1-3)GlcNAc(b1-3)Gal(b1-4)GlcNAc(b1-3)Gal(b1-4)GlcNAc(b1-2)Man(a1-3)]Man(b1-4)GlcNAc(b1-4)[Fuc(a1-6)]GlcNAc
# Procedure, shortened: as §1
# [16] = target: Gal(b1-3)GlcNAc(b1-3)Gal(b1-4)GlcNAc(b1-6)[Gal(b1-3)GlcNAc(b1-3)]Gal(b1-4)Glc
# Procedure, shortened: as §1
# [17] = target: Gal(b1-3)GlcNAc(b1-3)Gal(b1-4)[Fuc(a1-3)]GlcNAc
# Procedure, shortened: as §1
# [18] = target: Gal(b1-3)GlcNAc(b1-3)Gal(b1-4)[Fuc(a1-3)]GlcNAc(b1-6)[Gal(b1-3)GlcNAc(b1-3)]Gal(b1-4)Glc
# Procedure, shortened: as §1
# [19] = target: Gal(b1-3)GlcNAc(b1-3)GalNAc
# Procedure, shortened: as §1
# [20] = target: Gal(b1-3)GlcNAc(b1-6)Gal(b1-4)GlcNAc
# Procedure, shortened: as §1
# [21] = target: Gal(b1-3)GlcNAc(b1-6)GalNAc
# Procedure, shortened: as §1
# [22] = target: Gal(b1-3)GlcNAc(b1-6)[Gal(b1-3)]GalNAc
# Procedure, shortened: as §1
# Gal(b1-3)GlcNAc6S = target: Gal(b1-3)GlcNAc6S
# Procedure, shortened: as §1
# [23] = target: Gal(b1-3)[Fuc(a1-4)]GlcNAc
# Procedure, shortened: as §1
# [24] = target: Gal(b1-3)[Fuc(a1-4)]GlcNAc(b1-2)Man
# Procedure, shortened: as §1
# [25] = target: Gal(b1-3)[Fuc(a1-4)]GlcNAc(b1-2)Man(a1-3)[Gal(b1-3)[Fuc(a1-4)]GlcNAc(b1-2)Man(a1-6)]Man(b1-4)GlcNAc(b1-4)[Fuc(a1-6)]GlcNAc
# Procedure, shortened: as §1
# [26] = target: Gal(b1-3)[Fuc(a1-4)]GlcNAc(b1-3)Gal(b1-3)[Fuc(a1-4)]GlcNAc
# Procedure, shortened: as §1
# [27] = target: Gal(b1-3)[Fuc(a1-4)]GlcNAc(b1-3)Gal(b1-4)[Fuc(a1-3)]GlcNAc
# Procedure, shortened: as §1
# [28] = target: Gal(b1-3)[Fuc(a1-4)]GlcNAc(b1-6)GalNAc
# Procedure, shortened: as §1
# [29] = target: Gal(b1-3)[GlcNAc(b1-6)]GalNAc
# Procedure, shortened: as §1
# [30] = target: Gal(b1-3)[Neu5Ac(a2-6)]GalNAc
# Procedure, shortened: as §1
# [31] = target: Gal(b1-3)[Neu5Ac(a2-6)]GlcNAc(b1-4)Gal(b1-4)Glc
# Procedure, shortened: as §1
# [32] = target: Gal(b1-3)[Neu5Ac(b2-6)]GalNAc
# Procedure, shortened: as §1
# Gal(b1-4)Gal = target: Gal(b1-4)Gal
# Procedure, shortened: as §1
# [33] = target: Gal(b1-4)GalNAc(a1-3)[Fuc(a1-2)]Gal(b1-4)GlcNAc
# Procedure, shortened: as §1
binder,measurement,setting,value
"SGC, Q9M345 (protein) QNLNFTYNGFHPPLTDISLQGLATVTPNGLLKLTNTSVQKTGHAFCTERIRFKDSQNGNVSSFSTTFVFAIHSQIPTLSGHGIAFVVAPTLGLPFALPSQYIGLFNISNNGNDTNHIFAVEFDTIQSSEFGDPNDNHVGIDLNGLRSANYSTAGYRDDHDKFQNLSLISRKRIQVWIDYDNRSHRIDVTVAPFDSDKPRKPLVSYVRDLSSILLEDMYVGFSSATGSVLSEHFLVGWSFRLNGEAPMLSLSKLPKLPRFEPRRIS",glycan array binding signal (z-score),Gal(b1-3)GalNAc(b1-3)Gal,-0.362
same,glycan array binding signal (z-score),[1],-0.278
same,glycan array binding signal (z-score),[2],-0.306
same,glycan array binding signal (z-score),[3],-0.087
same,glycan array binding signal (z-score),Gal(b1-3)GlcNAc,-0.208
same,glycan array binding signal (z-score),[4],-0.348
same,glycan array binding signal (z-score),[5],0.154
same,glycan array binding signal (z-score),Gal(b1-3)GlcNAc(b1-2)Man,0.314
same,glycan array binding signal (z-score),[6],3.77
same,glycan array binding signal (z-score),[7],6.74
same,glycan array binding signal (z-score),[8],-0.083
same,glycan array binding signal (z-score),[9],3.03
same,glycan array binding signal (z-score),[10],0.723
same,glycan array binding signal (z-score),[11],-0.365
same,glycan array binding signal (z-score),[12],-0.434
same,glycan array binding signal (z-score),[13],0.678
same,glycan array binding signal (z-score),[14],5.28
same,glycan array binding signal (z-score),[15],4.72
same,glycan array binding signal (z-score),[16],-0.144
same,glycan array binding signal (z-score),[17],-0.337
same,glycan array binding signal (z-score),[18],-0.39
same,glycan array binding signal (z-score),[19],0.26
same,glycan array binding signal (z-score),[20],-0.457
same,glycan array binding signal (z-score),[21],1.42
same,glycan array binding signal (z-score),[22],0.571
same,glycan array binding signal (z-score),Gal(b1-3)GlcNAc6S,0.982
same,glycan array binding signal (z-score),[23],-0.349
same,glycan array binding signal (z-score),[24],-0.362
same,glycan array binding signal (z-score),[25],-0.06
same,glycan array binding signal (z-score),[26],-0.403
same,glycan array binding signal (z-score),[27],-0.357
same,glycan array binding signal (z-score),[28],2.08
same,glycan array binding signal (z-score),[29],-0.259
same,glycan array binding signal (z-score),[30],-0.36
same,glycan array binding signal (z-score),[31],0.844
same,glycan array binding signal (z-score),[32],-0.305
same,glycan array binding signal (z-score),Gal(b1-4)Gal,-0.291
same,glycan array binding signal (z-score),[33],-0.36
